± gives the standard deviation of the averaged measurements. Over roughly 33,000 sequences, “E-score (dimensionless, -0.5 to 0.5)” has its median near -0.049; the highest 2% begin near 0.37. The list shows a part of the results.
tested on: T1, PmTbr T-box DNA-binding domain (GST fusion); test: PBM E-score of 8-mer (E-score (dimensionless, -0.5 to 0.5)); Tbr is Tbrain of the sea star Patiria miniata (Pm) or the sea urchin Strongylocentrotus purpuratus (Sp); higher = stronger binding preference; most listed sequences are background and not binding sites; conditions: the construct has about 5 more residues each side
T1 sequence: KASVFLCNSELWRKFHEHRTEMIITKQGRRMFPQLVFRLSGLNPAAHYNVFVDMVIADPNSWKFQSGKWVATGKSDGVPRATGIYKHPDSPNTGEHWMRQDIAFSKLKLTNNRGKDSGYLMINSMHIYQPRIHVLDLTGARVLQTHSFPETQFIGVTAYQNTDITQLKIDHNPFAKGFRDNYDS
How it was run: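 GST-fused Tbr T-box DNA-binding domains (the whole T-box plus about five flanking residues) were expressed in BL21 E. coli at 20 °C and purified by glutathione affinity chromatography. Universal Agilent oligonucleotide arrays were made double-stranded by primer extension, incubated with 200 nM protein in PBS (pH 7.5), then scanned and quantified. Every ungapped 8-mer was scored from probe intensities. The Universal PBM Analysis Suite gave each word an enrichment E-score, averaged over duplicate arrays.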

| Sequence | PBM E-score of 8-mer |
| --- | --- |
| ATAACCAG | -0.0343 ± 0.1 |
| ATCGCCAG | 0.284 ± 0.0071 |
| AATGAGAT | -0.0533 ± 0.027 |
| AAGCGTAG | -0.0469 ± 0.048 |
| GCTAGACC | -0.147 ± 0.015 |
| ATGCAGGA | -0.208 ± 0.027 |
| CATAGAAA | -0.135 ± 0.037 |
| GTTACGTA | 0.105 ± 0.067 |
| CAGGCATG | -0.313 ± 0.066 |
| AACGATGT | 0.0297 ± 0.039 |
| AGCGATCC | -0.0708 ± 0.029 |
| AGCTCCCT | -0.0963 ± 0.051 |
| GCTCTGGA | -0.229 ± 0.0069 |
| CAGCGACG | 0.0301 ± 0.087 |
| GCGGGATA | -0.125 ± 0.025 |
| AGGAGACG | -0.072 ± 0.034 |
| CGCAAGAC | 0.0568 ± 0.028 |
| CCACACAG | 0.09004 ± 5.7e-05 |
| ATACATAA | -0.089 ± 0.1 |
| GCCATATA | -0.092 ± 0.017 |
| GGTAAATA | -0.101 ± 0.062 |
| CTTAAGTA | -0.194 ± 0.0088 |
| CCAATTCA | 0.0108 ± 0.061 |
| AGTTACCA | 0.0049 ± 0.06 |
| AGCATGGC | -0.174 ± 0.051 |

| Sequence | PBM E-score of 8-mer |
| --- | --- |
| CATGTGCA | 0.0375 ± 0.051 |
| ACGGAGGG | -0.131 ± 0.059 |
| CCTGTACA | -0.159 ± 0.0084 |
| GACACACC | 0.287 ± 0.073 |
| TGAGCCAA | -0.152 ± 0.014 |
| CTATGCAC | -0.129 ± 0.042 |
| CAACTGGA | 0.0555 ± 0.022 |
| AAGAATTG | -0.0537 ± 0.066 |
| GATGCGCC | -0.252 ± 0.014 |
| TAGCCATA | -0.0238 ± 0.019 |
| ATGGGAGC | -0.16 ± 0.016 |
| ACGCTAGC | 0.0295 ± 0.047 |
| AGAATTAC | -0.192 ± 0.025 |
| CTCACACA | 0.41 ± 0.0079 |
| GAATGTCA | 0.115 ± 0.029 |
| CCAGACCA | -0.0405 ± 0.051 |
| GCTAGAAA | 0.0693 ± 0.092 |
| TGACACAA | 0.311 ± 0.0088 |
| AATGTGTC | 0.425 ± 0.0071 |
| CCATCCCA | -0.133 ± 0.1 |
| CCCTTAGA | -0.238 ± 0.06 |
| CGTTCTCA | 0.146 ± 0.044 |
| GGTTCGAC | 0.0606 ± 0.091 |
| CAACCATC | 0.0104 ± 0.011 |
| ACTACGCA | 0.0912 ± 0.095 |

| Sequence | PBM E-score of 8-mer |
| --- | --- |
| CAGAGAGC | -0.34 ± 0.019 |
| AACGGGCC | -0.223 ± 0.072 |
| AGTGCATA | 0.00416 ± 0.059 |
| ATCTCCCC | -0.0143 ± 0.038 |
| ACAAATTA | 0.106 ± 0.067 |
| ATGGGTCA | -0.203 ± 0.038 |
| GATCAAGA | -0.0339 ± 0.033 |
| AACGCGGG | -0.147 ± 0.033 |
| AATGAAAC | -0.18 ± 0.034 |
| CACCGAGG | 0.0806 ± 0.037 |
| CATCAGCC | -0.112 ± 0.0073 |
| AAACTCGG | -0.244 ± 0.014 |
| ACCTCCTG | 0.0176 ± 0.024 |
| ACCCTGGG | 0.0733 ± 0.0079 |
| CCAGCCAG | -0.114 ± 0.074 |
| AGATATTA | -0.0683 ± 0.087 |
| GCGATCCA | -0.0877 ± 0.058 |
| AGACGCCA | -0.0179 ± 0.091 |
| TACCTTCA | 0.0141 ± 0.08 |
| CCGCTTAA | -0.0734 ± 0.03 |
| ACCTGGGG | 0.0226 ± 0.0096 |
| CGACGCCC | 0.174 ± 0.018 |
| CATGATCA | -0.0563 ± 0.0083 |
| TAAGAGTA | -0.272 ± 0.044 |
| CTGCATTA | -0.0284 ± 0.033 |

| Sequence | PBM E-score of 8-mer |
| --- | --- |
| CCAGAGGC | 0.0947 ± 0.07 |
| GGACTGGA | -0.237 ± 0.065 |
| AGGCTATA | -0.207 ± 0.012 |
| AAGTGTCT | 0.329 ± 0.022 |
| ATTTACAG | -0.0158 ± 0.018 |
| AAAGAGTC | -0.22 ± 0.046 |
| GCACCGCA | 0.0271 ± 0.029 |
| ACAGATTC | 0.111 ± 0.045 |
| TGTCGACA | 0.371 ± 0.0078 |
| AGGTGAAG | 0.219 ± 0.012 |
| GTACATAA | -0.0339 ± 0.035 |
| ACTGCAGC | 0.0672 ± 0.059 |
| ATCGGCAA | 0.115 ± 0.03 |
| ACCGCCAC | 0.197 ± 0.085 |
| AAGGAATT | -0.117 ± 0.052 |
| GCCGCCCC | -0.0497 ± 0.058 |
| CTGCTGCC | -0.113 ± 0.024 |
| GGTAGACA | 0.0476 ± 0.0034 |
| ATCTCTTA | -0.0802 ± 0.075 |
| ATGTGCAC | 0.015 ± 0.013 |
| AGAGTCCC | -0.292 ± 0.091 |
| AAGCAGCT | -0.151 ± 0.042 |
| ACGAACGG | -0.0879 ± 0.0054 |
| AATAGAGA | -0.0689 ± 0.078 |
| GCATAGAA | -0.0823 ± 0.034 |

| Sequence | PBM E-score of 8-mer |
| --- | --- |
| CAAGCGAG | 0.00257 ± 0.039 |
| CATCCCCA | -0.0561 ± 0.085 |
| CATTAATA | -0.193 ± 0.067 |
| GTGGAGTA | -0.131 ± 0.093 |
| ACGTCTCG | 0.108 ± 0.038 |
| AACCGTGG | -0.0611 ± 0.048 |
| ACCCAGTA | -0.234 ± 0.012 |
| CCGCGCGC | 0.0453 ± 0.026 |
| AGCACGAG | 0.115 ± 0.0097 |
| GGTATCAA | 0.079 ± 0.11 |
| AGGGATCC | -0.209 ± 0.027 |
| ATGTCGCG | 0.289 ± 0.0094 |
| CGAGAACG | 0.271 ± 0.0043 |
| GCTGACCA | -0.224 ± 0.072 |
| GCGAGACC | 0.232 ± 0.056 |
| ACTTGTTC | -0.188 ± 0.0091 |
| AATGAATT | -0.121 ± 0.13 |
| GAAGAACC | -0.202 ± 0.056 |
| CCTCCCGC | -0.0958 ± 0.03 |
| ACAGGACC | -0.282 ± 0.042 |
| GTTGGGGA | -0.127 ± 0.1 |
| AGTGGGTA | -0.124 ± 0.028 |
| AGCATCCC | -0.136 ± 0.039 |
| CACATGGG | 0.113 ± 0.049 |
| AGACCGAT | -0.274 ± 0.099 |

| Sequence | PBM E-score of 8-mer |
| --- | --- |
| CACGCAGA | 0.125 ± 0.016 |
| TATGGGAA | -0.202 ± 0.022 |
| AAAAACGA | -0.142 ± 0.05 |
| ACTACAAC | -0.0613 ± 0.028 |
| TCTCCGCA | -0.11 ± 0.1 |
| CAGGTACC | -0.027 ± 0.063 |
| GAAGCGTC | 0.0981 ± 0.0082 |
| GAACGGGC | 0.0503 ± 0.036 |
| CCTCCTCG | -0.0688 ± 0.014 |
| AGTCTGCG | -0.148 ± 0.0098 |
| CCCGACAC | 0.388 ± 0.012 |
| ATCCCATA | -0.0884 ± 0.072 |
| CAAGTTGG | 0.0672 ± 0.011 |
| CATGGTCC | -0.132 ± 0.037 |
| ATACTGCG | -0.0695 ± 0.016 |
| AGTCACAA | 0.106 ± 0.0063 |
| GCAAGCCC | -0.103 ± 0.075 |
| CATGCGGC | -0.0919 ± 0.033 |
| ATAGCAAA | -0.0508 ± 0.04 |
| GTATGAGA | -0.131 ± 0.012 |
| ATGAGGAA | -0.3 ± 0.077 |
| AAGCGCGG | 0.0485 ± 0.038 |
| CCAAGCGA | -0.166 ± 0.035 |
| CACTCTCC | 0.083 ± 0.04 |
| CCTTAATA | -0.1514 ± 0.00062 |

| Sequence | PBM E-score of 8-mer |
| --- | --- |
| GATGCATA | -0.0197 ± 0.1 |
| ACTGGTGA | -0.0696 ± 0.0019 |
| CCCCCCCA | -0.0836 ± 0.0076 |
| GGTACAGA | -0.041 ± 0.064 |
| CAAGATAG | -0.0633 ± 0.034 |
| CATCCTGC | -0.3604 ± 0.002 |
| GCGATTAC | -0.0283 ± 0.013 |
| GACCGCGA | 0.194 ± 0.0029 |
| CCACTCAC | 0.153 ± 0.06 |
| GCGTGAGA | 0.368 ± 0.021 |
| ATTTTTGC | 0.0605 ± 0.039 |
| AACCTTTC | -0.105 ± 0.047 |
| ATTGTCGG | 0.0329 ± 0.01 |
| CGGAAAAG | -0.0741 ± 0.0057 |
| AAGAGAGT | -0.115 ± 0.012 |
| AACCAGCA | -0.18 ± 0.047 |
| CTAGAGCC | -0.0119 ± 0.035 |
| CCACAACC | 0.0191 ± 0.096 |
| CTAGGGCC | -0.289 ± 0.0065 |
| CCGATCAC | 0.0996 ± 0.056 |
| TAAACCGA | -0.213 ± 0.046 |
| CGTGGGGA | 0.0599 ± 0.026 |

From the supplement of paper PMC4166925
